In the RNAGym collection of RNA variant scans (doi:10.1093/nar/gkz1192):
Read counts are not given, so values of variants with three or more changes are uncertain.

B1: CPEB3 Ribozyme (parent)
chain: UAACAGGGGGCCACAGCAGAAGCGUUCACGUCGCAGCCCCUGUCAGAUUCUGGUGAAUCUGCGAAUUCUGCUGUAUAUCUC

Variants of: B1
Test: self-cleavage, relative activity (ratio to wild type); higher = more cleavage; in vitro, sequencing
How it was run: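 Libraries of CPEB3 self-cleaving ribozyme mutants came from rounds of error-prone PCR and carried barcodes, which DNA sequencing matched to variants. In vitro transcription used T7 RNA polymerase at 37°C for 5 hours, with a further 15 min in DNase I before EDTA stopped the reaction; the ribozymes cleaved during both steps. The RNA was reverse transcribed with template switching and sequenced on Illumina. Relative activity is the cleaved/total read fraction of a variant divided by that of the unmutated ribozyme, averaged over three batches with at least 5 reads.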

| Variant | self-cleavage |
| --- | --- |
| U31C U51A A64G U80C | 0.39 |
| U31C U51A U54C U74C | 0.91 |
| U31C U51A U66C | 0.23 |
| U31C U51C A65U | 0.26 |
| U31C U51C C68U | 0.6 |
| U31C U51C U58G U67C | 0.15 |
| U31C U54A U78C | 0.92 |
| U31C U54G A64U | 0.16 |
| U31C U58C A64G | 0.12 |
| U31C U58C U74C A75U | 0.76 |
| U31C U60A U67C C71A | 0.23 |
| U31C U60C U78C | 0.34 |
| U31C U67A C79U | 0.39 |
| U31C U67A U72A U80C | 0.19 |
| U31C U69A C81U | 0.45 |
| U31C U69A U72C U78C | 0.23 |
| U31C U69A U78A | 0.22 |
| U31C U72C U78A | 0.73 |
| U31C U74C U80A | 1.14 |
| U31G A35G G36A A56G | 0.31 |
| U31G A35G U41A A47G U72C | 0.15 |
| U31G A35G U43C U51A U54C U60C | 0.28 |
| U31G A45C U60C A64U U67C A75U | 0.07 |
| U31G A57G U80C | 0.55 |

| Variant | self-cleavage |
| --- | --- |
| U31G C32U U54A | 0.27 |
| U31G C34U C37U G61U U66C | 0.06 |
| U31G C44G U76A U78C | 0 |
| U31G G52C U72C U78A | 0.9 |
| U31G U41A U48C A57U U67C U69A | 0.12 |
| U31G U51A U69A A75U | 0.12 |
| U31G U51C A56G U60C | 0.15 |
| U31G U51C U54C | 0.78 |
| U31G U54C U66C U67C | 0.26 |
| U31G U69C G70A | 0.15 |
| C32A A47G C59G U60C | 0.1 |
| C32A A57G A64U | 0.17 |
| C32A C38G A47G U48C | 0.11 |
| C32A C59U U74C | 0.14 |
| C32A G33A C37A U41A U67C U72C | 0.1 |
| C32A U43A U72A | 0.26 |
| C32A U43C U66C U74C | 0.13 |
| C32A U48C C68G U76A | 0.04 |
| C32A U51C G53A A56U U58G U80A | 0.06 |
| C32A U58A G63A A64G U69C U80A | 0.14 |
| C32A U74C U78C | 0.3 |
| C32G A45U U49C U51C | 0.18 |
| C32G A64G U69C U74C | 0.11 |
| C32G U41A U58C | 0.33 |

| Variant | self-cleavage |
| --- | --- |
| C32G U48A U54A U72A U76A | 0.13 |
| C32U A35G C37A | 0.14 |
| C32U A56G A64U U80A | 0.1 |
| C32U A56U A57G | 0.15 |
| C32U C37U G52A U54C A77C | 0.09 |
| C32U C38U U41A A56G | 0.13 |
| C32U C40G U43A A57G U58C | 0.11 |
| C32U C44U A75U | 0.11 |
| C32U G52A U60C | 0.18 |
| C32U U41A A56U | 0.14 |
| C32U U41C A77U U80C | 0.3 |
| C32U U41C U49C A77G | 0.08 |
| C32U U51G U58C U69C | 0.14 |
| C32U U54C U60A C62A | 0.13 |
| C32U U60A U80C | 0.29 |
| G33A A35G U41A | 0.07 |
| G33A A35U C38A U80A | 0.13 |
| G33A A35U G42A A64U | 0.14 |
| G33A A45G A56U | 0.31 |
| G33A A45G U60A G61A U76A | 0.08 |
| G33A A45G U72C | 0.03 |
| G33A A47G U51C | 0.2 |
| G33A A47G U72C C81U | 0.08 |
| G33A C37U U41C | 0.2 |

| Variant | self-cleavage |
| --- | --- |
| G33A C38A U67A U80A | 0.06 |
| G33A C38U A64G | 0.08 |
| G33A G36A A56U A64G | 0.14 |
| G33A G36A U41A A47U C62A U80C | 0.1 |
| G33A G53A U60G | 0.12 |
| G33A U41C U51A U67C | 0.09 |
| G33A U41C U60A U78C | 0.2 |
| G33A U41C U80C | 0.35 |
| G33A U43A U54A A56C A57G | 0.23 |
| G33A U43A U58C U66C | 0.08 |
| G33A U43C A45G | 0.5 |
| G33A U51C A56G A77G | 0.17 |
| G33A U60C U67C | 0.08 |
| G33A U66C U80A | 0.43 |
| G33C A35G U48C U54A U60C U66C A75G | 0.12 |
| G33C A35G U51A | 0.1 |
| G33C A35G U54C U58C | 0.08 |
| G33C G46A C50U U80C | 0.4 |
| G33C G46U G63A A65G | 0.05 |
| G33C U43A U54C U67A U76C U80C | 0.16 |
| G33C U48A U60G | 0.09 |
| G33C U54C A56G | 0.16 |
| G33C U60A U72C | 0.21 |
| G33C U67A U74C | 0.21 |

| Variant | self-cleavage |
| --- | --- |
| G33C U67C U80A | 0.27 |
| G33U A35G U49A U76A | 0.08 |
| G33U A45G U49C | 0.08 |
| G33U A47G U58C U60A U67A | 0.16 |
| G33U A47U A56U | 0.06 |
| G33U A64U U66C | 0.19 |
| G33U C37G U80C | 0.4 |
| G33U C38U U48A U54A A56G A65G | 0.06 |
| G33U G63U U67C A77G | 0.09 |
| G33U U41A A57G U80A | 0.23 |
| G33U U41A U51A | 0.12 |
| G33U U43C A75G | 0.41 |
| C34A A35U U58A U72A | 0.13 |
| C34A A47G U80C | 0.26 |
| C34A G61C U67C | 0.12 |
| C34A U43C A56U A65G | 0.13 |
| C34A U54A A65G U66C | 0.18 |
| C34A U76C C79A | 0.28 |
| C34G A56G U78A | 0.1 |
| C34G C40A A47G U51C U60C A64G | 0.06 |
| C34G U41C U43A U69G U72G | 0.16 |
| C34G U43A A45G U48C A64G U67C U74A | 0.05 |
| C34G U43C C62A U72A | 0.15 |
| C34G U43C U51C U80C | 0.37 |

| Variant | self-cleavage |
| --- | --- |
| C34G U54C A57G | 0.14 |
| C34U A35G A64U | 0.1 |
| C34U A45U U60A | 0.28 |
| C34U A56G U60C U69C U78C | 0.04 |
| C34U A57G A75G | 0.45 |
| C34U U41C A75U | 0.26 |
| C34U U41C A77U U78C | 0.24 |
| C34U U48C U69C | 0.09 |
| C34U U54G A57G U67C U72A | 0.09 |
| A35C A45G U49A U67A U78A | 0.08 |
| A35C A56C U69C U78C | 0.23 |
| A35C A64G U69C | 0.23 |
| A35C U41C A47G U54G A65G G73U U76A | 0.25 |
| A35C U41C U66A U72C | 0.5 |
| A35C U43C A47U U76C | 0.12 |
| A35C U51C U58C | 0.41 |
| A35C U67C G70U | 0.26 |
| A35G A45C U51G | 1.05 |
| A35G A45G A64G | 1.25 |
| A35G A45G A64U U78A | 0.62 |
| A35G A45G G55C A57G U66A A75U U78C | 0.75 |
| A35G A45G U48C | 1.19 |
| A35G A45G U49C | 0.34 |
| A35G A45G U49C U54C U67A | 0.22 |

| Variant | self-cleavage |
| --- | --- |
| A35G A45G U69A U78C | 1.19 |
| A35G A45G U72C | 1.31 |
| A35G A45U A57G A65G A75G | 0.34 |
| A35G A47G C79U | 1.32 |
| A35G A47G U49A | 1 |
| A35G A47G U49A G53A G63U | 1.3 |
| A35G A47G U58C | 1.27 |
| A35G A47G U69C U78C | 1.05 |
| A35G A47G U72G U74G U76C | 1.31 |
| A35G A56G C81A | 1.3 |
| A35G A56G U60A U74A | 1.18 |
| A35G A56G U78C | 1.29 |
| A35G A56U A57G U80C | 1.23 |
| A35G A57G A75G U80C | 1.22 |
| A35G A57G U58C U72C | 0.53 |
| A35G A64U U67G U72A | 0.25 |
| A35G A65G U67A | 0.77 |
| A35G A65U U74A | 0.94 |
| A35G A75G U78A | 1.31 |
| A35G C37A U41C U54A | 0.96 |
| A35G C37G U41C C59A U69A | 0.13 |
| A35G C37G U66C | 0.16 |
| A35G C38A C71A | 0.27 |
